This experiment relates to Na+ channel (site 2). To be noted: at 1 μM; rat cerebral cortex; [3H]batrachotoxin.

Molecules are shown by their SMILES.

Turning to `CC(C)(C)c1ccc(OCCCN2CCCCC2)cc1` [DL76, 1-(3-(4-tert-butyl-phenoxy)propyl) piperidine], the “Na+ channel (site 2) inhibition” value came to 32%.

(Values after paper PMC11188305, “Reproductive and fetal toxicity studies of histamine H3 receptor antagonist DL76 used in mice to prevent maximal electroshock-induced seizure” (Frontiers in Pharmacology, 2024).)
